The record followed here is PubChem BioAssay AID1346428 (National Center for Advancing Translational Sciences (NCATS), 2018).

Molecules are shown by their SMILES. “And” between values parts separate entries of the source, which are not always exact repeats. Identical values can stand only once. Screen size: about 48,000 compounds; about 1,200 (2.5%) were called active. Roughly 2% stayed inconclusive and do not appear here.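 The calls were made as follows: active = activation of at least 60% and not above a set upper limit (about 1 call in 100 departs from these limits); inconclusive = activation of 40% to 60%, or above that upper limit; inactive = activation under 40%.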 Some of the results follow.

In this experiment the target is Probable G-protein coupled receptor 32 (Homo sapiens) (UniProt O75388). Nature of the experiment: qHTS for Agonists of Human Resolvin D1 Receptor DRV1. Also: 0% is about no effect. Particulars: CHO-K1 GPR32 beta-arrestin PathHunter luminescence, 90 min; at 76.9 µM; hits give high values; zero percent set by DMSO-only wells. An outline of the steps: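 PathHunter beta-arrestin recruitment in CHO-K1 cells stably expressing ProLink-tagged GPR32. Cells were exposed to compound for 90 min at 37 C, then chemiluminescence was read after 1 h detection at ambient temperature; DMSO served as basal control.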
Chain of UniProt O75388 (O75388 whole entry, looked up): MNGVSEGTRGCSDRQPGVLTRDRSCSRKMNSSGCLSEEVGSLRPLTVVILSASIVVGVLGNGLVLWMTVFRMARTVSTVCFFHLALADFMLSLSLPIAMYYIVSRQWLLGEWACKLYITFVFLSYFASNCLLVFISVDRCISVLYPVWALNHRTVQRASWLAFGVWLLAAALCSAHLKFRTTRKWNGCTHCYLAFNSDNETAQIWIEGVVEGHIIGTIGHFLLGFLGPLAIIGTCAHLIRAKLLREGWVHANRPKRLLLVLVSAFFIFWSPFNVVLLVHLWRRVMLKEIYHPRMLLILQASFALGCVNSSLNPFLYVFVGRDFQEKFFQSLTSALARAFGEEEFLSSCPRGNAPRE
(In general: qHTS replaces the single test concentration by a dilution series.)
Regarding `NC(N)=N[C@@H](CCC(=O)O)C(=O)O`, the activation is inactive: -1.42%.

With `Cc1ccc2ncc(C(=O)NC(C)c3ccccc3)c(=O)n2c1` (stereo unspecified), the activation was inactive: -7.14%.

In the case of `O=C(O)CCc1nnc2cnc3ccccc3n12`, the activation is inactive: 3.03%.

Consider `CCc1nn(CC(=O)NCCCc2ccccc2)c(=O)c2cc3c(OC)cccc3n12`, for which the activation is inactive: -0.658%.

In the case of `CC(=O)N1CCC2(CC1)OC(=O)C(C)=C2C(=O)NCc1cccc(Cl)c1`, the activation is inactive: -8.18%.

As for `COc1cc(NC(=O)NCC2CCN(Cc3ccc(C)cc3)CC2)cc(OC)c1OC`, the activation was inactive: -10.7%.

On to `Cc1ccc(N2CCN(C(=O)c3c(C)oc4ncnc(N5CCOCC5)c34)CC2)c(C)c1`, for which the activation was inactive: -11.6%.

On to `Cc1ccc(C)c(Nc2cc(C(=O)NCCCN(C)C3CCCCC3)c3ccccc3n2)c1`, for which the activation was inactive: -8.54%.

Regarding `Cc1ccc(N2C(=O)CS(=O)(=O)C23C(=O)N(C)c2ccccc23)cc1F` (stereo unspecified), the activation was inactive: -9.02%.

In the case of `O=[N+]([O-])c1cc(-c2nc(-c3ccccn3)no2)ccc1NCc1ccccc1`, the activation was inactive: 15.9%.

Take `C[N+](C)(C)CC(O)CC(=O)[O-]` (stereo unspecified): the activation is inactive: 11%.

As to `Cc1ccc(CNC(=O)c2cnc3c(-c4ccccc4)c(C)nn3c2C)o1`, the activation was inactive: -15.3%.

As for `Cc1ccc(CN2CCCn3nc(C(=O)NCc4cc(C)ccc4C)cc3C2=O)cc1`, the activation is inactive: -4.03%.

Regarding `Cc1ccc(C(=O)Nc2nnc(S(=O)(=O)N3CCN(c4ccc(F)cc4)CC3)s2)cc1`, the activation is inactive: -0.758%.

For the compound `Cc1ccc(S(=O)(=O)CCC(=O)Nc2ccc(Br)cc2C)cc1`, the activation was inactive: 5.17%.

In the case of `CCOC(=O)c1cnc2c(ccc3ccccc32)c1Nc1ccccc1OC`, the activation is active: 85%.

`COc1ccc(-c2noc(CSc3nnc(Cc4ccccc4)n3-c3ccccc3)n2)cc1OC`: the activation is inactive: -8.72%.

For `CCOC(=O)c1cc(-c2ccccc2)n(CC(=O)NC2CCC(C)CC2)c1C` (stereo unspecified), the activation is inactive: -10.2%.

In the case of `O=C(NCCc1csc(-c2ccc(F)cc2)n1)c1cccs1`, the activation is inactive: 24.1%.

Regarding `O=C(NC1CC(=O)N(c2ccc3c(c2)OCCO3)C1)c1c(F)cccc1Cl` (stereo unspecified), the activation is inactive: 0.14%.

`COc1ccc(NC(=O)Cn2c(=O)cc(C)c3c(C)nn(-c4cccc(Cl)c4C)c32)cc1OC`: the activation is inactive: -11.5%.

As for `CC(C)Oc1ccc2c(=O)c(-c3ccccc3)coc2c1`, the activation was inactive: 34.9% and inactive: 14.5%.

As to `Cc1ccc2c(c1)c(=O)c(C(=O)c1ccc3c(c1)OCO3)cn2Cc1cccc(F)c1`, the activation was inactive: -22%.

Consider `COCCNc1oc(-c2ccc(COc3ccc(OC)cc3)o2)nc1C#N`, for which the activation is inactive: -10.9%.

For the compound `Cc1ccc(NC(=O)CSc2nc3ccccc3c3nc(CCc4c(C)n[nH]c4C)nn23)c(C)c1`, the activation is inactive: -19.6%.

`Cc1ccc(-c2nn(-c3ccc(F)cc3F)c3c2cnc2c(F)cccc23)cc1`: the activation is inactive: -11.1%.

Turning to `Cc1ccccc1C(=O)Nc1nc2nc(C)c(C)c(=O)n2[nH]1`, the activation was inactive: 8.6%.

On to `CCCc1nn2c(=O)cc(COC(=O)c3ccc(NC(=O)CCc4ccccc4)cc3)nc2s1`, for which the activation was inactive: -17.4%.

As to `Cc1nc2c(C(=O)O)cnn2c(C)c1Cc1ccccc1`, the activation was inactive: 10.1%.

`CCc1ccc2oc(-c3cccc(NC(=O)c4cc5ccccc5o4)c3)nc2c1`: the activation is inactive: 1.19%.

As for `Cc1ccc2nc(N3CCN(c4cccc(Cl)c4)CC3)c3nnnn3c2c1`, the activation is inactive: 6.25%.

For `Cc1ccc(C(=O)CSc2ncc3c(n2)-c2ccccc2N(Cc2ccc(Cl)cc2)S3(=O)=O)cc1`, the activation is inactive: 0.957%.

Turning to `CC(=O)Nc1nnc(S(N)(=O)=O)s1`, the activation is inactive: -15.5% and inactive: 2.8%.

As for `CCCCOc1ccc(CNC(=O)c2ccc(-c3nc(CN4CCc5ccccc54)c(C)o3)cc2)cc1`, the activation was inactive: -0.679%.

Regarding `Cc1cc2cc3c(C)cc(=O)oc3c(C)c2o1`, the activation was inactive: -18.3%.

Take `COc1cccc(NC(=O)c2sc3nc4n(c(=O)c3c2C)CCC4)c1`: the activation is inactive: -0.378%.

For `CCn1cc2nc(SCC(=O)Nc3ccccc3F)n(Cc3ccc(C)cc3)c(=O)c2n1`, the activation was inactive: -5.47%.

For the compound `COc1ccc(-c2cc3nc(C)c(CCC(=O)Nc4cccc(C(F)(F)F)c4)c(C)n3n2)c(OC)c1`, the activation was inactive: 13.7%.

Turning to `CCc1ccc(-c2nc(CN3CCCC(C(=O)NCc4ccc(C)cc4)C3)c(C)o2)cc1` (stereo unspecified), the activation is inactive: 37.2%.

As for `CN1CCN(N)CC1`, the activation is inactive: -2.7%.

`Cc1ccc(CNC(=O)Nc2cn(CC(C)C)c(=O)c3ccccc23)cc1`: the activation was inactive: -53.7%.

As to `Cc1ccnc(NC(=O)c2c(C)oc3ncn(CC(C)C)c(=O)c23)c1`, the activation is inactive: -12.7%.

Regarding `O=C(NCCCN1CCN(c2ccccc2F)CC1)c1cc2c(Cl)nc3ccccc3c2s1`, the activation was inactive: 6.6%.

With `Clc1ccc2nsnc2c1NC1=NCCN1`, the activation was inactive: -1.97% and inactive: 7.34%.

With `Cc1cc(C)c(NC(=O)CN2c3ccccc3S(=O)(=O)c3ccccc32)c(C)c1`, the activation is inactive: -9.22%.

For `CN(C(=O)Cn1cc(S(=O)(=O)N2CCN(c3ccccc3F)CC2)c2ccccc2c1=O)c1ccc(Cl)cc1`, the activation is inactive: -3.18%.

Regarding `COCC(C)NC(=O)c1cnn2c(C(F)F)cc(-c3ccccc3)nc12` (stereo unspecified), the activation was inactive: 7.12%.

For the compound `CC(=O)c1ccc(NC(=O)c2cc(-c3ccc4c(c3)OCO4)on2)cc1`, the activation was inactive: 6.25%.

As for `Cc1nnc(SCc2ccccc2Cl)c2cc3sccc3n12`, the activation is inactive: -11.2%.

Regarding `O=C(Nc1sc2c(c1C(=O)Nc1ccc(Cl)cc1)CCCC2)c1cccs1`, the activation was inactive: 5.06%.

Turning to `CCCCCOc1ccc(NC(=O)Cc2csc(C)n2)cc1`, the activation is inactive: -13.8%.

Take `Cc1ccc(C(=O)Nc2ccccc2C(=O)O)cc1S(=O)(=O)N1CCCCCC1`: the activation was inactive: 42.8%.

On to `CN1CCN(CCCNC(=O)Cn2c(-c3cccs3)cc3cc(Cl)ccc32)CC1`, for which the activation is inactive: 17.2%.

As for `Cc1ccc(CN2COc3cc(C)c4c(oc(=O)c5ccccc54)c3C2)cc1`, the activation was inactive: -15.3%.

Regarding `COc1cc(OC)c(NC(=O)C(NS(=O)(=O)c2cccc3nsnc23)c2ccccc2)cc1Cl` (stereo unspecified), the activation is inactive: -27.2%.

For `CCOc1ccc(NC(=O)c2cnn(-c3ccc(C)c(Cl)c3)c2C2CCNCC2)cc1`, the activation was inactive: 5.79%.
